Test results: US20170368082A1, “FORMULATIONS OF BRINCIDOFOVIR” (priority 2016, published 2017)
Further values from the same series stand in other lists.

Assay: Tissue distribution by quantitative whole-body autoradiography (QWBA)
Assay type: in vivo, male Sprague Dawley and Long-Evans rats
Details: 15 mg/kg IV
Procedure: The study utilized 4 groups of male SD rats (albino), and 3 groups of male LE rats (pigmented); a total of 39 rats. All animals were obtained from Hilltop Lab Animals, Inc. (Scottdale, Pa.). […] Rats in Group 5 were administered a single 2-h IV infusion of [^14C]brincidofovir at a target dose of 2 mg/kg. […] Three dosing formulations (one for high dose IV, one for low dose IV, and one for PO dose) were prepared at QPS on the day of dosing. The IV formulation for Groups 1, 2, 3, and 4 contained a vehicle of 10 mM sodium phosphate buffer in 5% dextrose solution at pH 8.0(±0.1).
Each animal, at their respective termination time points, was euthanized for QWBA analysis immediately after blood collection. One rat per time point per Group was euthanized as listed below.
The blood samples were maintained on wet ice (approximately 4° C.) and then centrifuged to obtain plasma within 1 h of the blood collection time. Centrifuge settings were recorded in the study notebook. Duplicate aliquots of plasma (0.050 mL) were analyzed for radioactivity using direct counting by LSC, and residual plasma was stored at approximately −70° C. and was saved for possible future analysis under a separate study protocol. Residual red blood cells were discarded as radioactive waste.
The pinna, distal limbs, hair, and tail were removed from each frozen carcass and each frozen carcass was embedded in an aqueous suspension of approximately 2% (w/v) carboxymethylcellulose and frozen into a block. The blocks were stored at approximately −20° C. prior to sectioning. Each blocked carcass was mounted on the object stage of a cryomicrotome (Leica CM3600 Cryomacrocut, Nussloch, Germany and Vibratome 9800, St. Louis, Mo.) maintained at approximately −20° C. and internal standards (3), which were plasma fortified with [^14C]-glucose at one concentration (approximately 0.05 μCi/mL), were placed into the frozen blocks, prior to sectioning, and were used for section thickness quality control. A number of whole-body sections (approximately 40 μm thick) were taken in the sagittal plane at various levels of interest using a whole-body cryomicrotome set at −20° C. Sagittal sections (20-50 μm thick) of frozen carcasses were exposed to phosphor imaging plates. Regions of images in tissues were converted to concentrations using standards. All of the major tissues, organs, and biological fluids were represented.
Tissue concentration data was determined for the following tissues and/or contents: adipose (brown and white), adrenal gland, bile (in duct), blood (cardiac), bone, bone marrow, brain (cerebrum, cerebellum, medulla), cecum (and contents), large intestine (and contents), epididymis, esophagus, eye (uvea and lens), Harderian gland, heart, kidney (cortex and medulla), liver, lung, lymph node, pancreas, pituitary gland, prostate gland, salivary gland, seminal vesicles, skeletal muscle, skin (pigmented and non-pigmented), small intestine (and contents), stomach (gastric mucosa and contents), spleen, spinal cord, testis, thymus, thyroid, and urinary bladder (and contents).
The imaging plate and sections were placed in light-tight exposure cassettes, in a copper-lined lead safe, for a 4-day exposure at room temperature. […] Quantification was performed by image densitometry using MCD image analysis software (v. 7.0, Interfocus Imaging Ltd) and a standard curve constructed from the integrated response [i.e., Molecular Dynamics Counts per square millimeter (MDC/mm^2)] and the nominal concentrations of the ^14C-calibration standards. The concentrations of radioactivity were expressed as the μg equivalents of [^14C]brincidofovir per gram sample (μg equiv/g). A lower limit of quantification (LLOQ) was applied to the data (See section 6.7.4).
Tissue concentrations that fell below the LLOQ were identified as being below the quantification limit (BQL). Tissue areas that were not visualized on autoradiographic images were identified as no sample (NS) and reported as BQL.

## CCCCCCCCCCCCCCCCOCCCOP(=O)(O)CO[C@H](CO)Cn1ccc(N)nc1=O [[^14C]brincidofovir]
Adipose (brown), 1 h, LE rat
  Concentration of radioactivity: 0.839 μg equiv/g tissue
Adipose (brown), 2 h, LE rat
  Concentration of radioactivity: 1.680 μg equiv/g tissue
Adipose (brown), 4 h, LE rat
  Concentration of radioactivity: 1.123 μg equiv/g tissue
Adipose (brown), 8 h, LE rat
  Concentration of radioactivity: 0.755 μg equiv/g tissue
Adipose (brown), 24 h, LE rat
  Concentration of radioactivity: 0.306 μg equiv/g tissue
Adipose (brown), 72 h, LE rat
  Concentration of radioactivity: 0.402 μg equiv/g tissue
Adipose (brown), 96 h, LE rat
  Concentration of radioactivity: 0.187 μg equiv/g tissue
Adipose (brown), 168 h, LE rat
  Concentration of radioactivity: 0.132 μg equiv/g tissue
Adipose (brown), 840 h, LE rat
  Concentration of radioactivity: BQL (BQL = Value is below the LLOQ)
Adipose (white), 1 h, LE rat
  Concentration of radioactivity: 0.369 μg equiv/g tissue
Adipose (white), 2 h, LE rat
  Concentration of radioactivity: 0.365 μg equiv/g tissue
Adipose (white), 4 h, LE rat
  Concentration of radioactivity: 0.317 μg equiv/g tissue
Adipose (white), 8 h, LE rat
  Concentration of radioactivity: 0.124 μg equiv/g tissue
Adipose (white), 24 h, LE rat
  Concentration of radioactivity: 0.058 μg equiv/g tissue
Adipose (white), 72 h, LE rat
  Concentration of radioactivity: 0.062 μg equiv/g tissue
Adipose (white), 96 h, LE rat
  Concentration of radioactivity: BQL (BQL = Value is below the LLOQ)
Adipose (white), 168 h, LE rat
  Concentration of radioactivity: BQL (BQL = Value is below the LLOQ)
Adipose (white), 840 h, LE rat
  Concentration of radioactivity: BQL (BQL = Value is below the LLOQ)
Adrenal Gland, 1 h, LE rat
  Concentration of radioactivity: 2.523 μg equiv/g tissue
Adrenal Gland, 2 h, LE rat
  Concentration of radioactivity: 4.802 μg equiv/g tissue
Adrenal Gland, 4 h, LE rat
  Concentration of radioactivity: 3.282 μg equiv/g tissue
Adrenal Gland, 8 h, LE rat
  Concentration of radioactivity: 3.179 μg equiv/g tissue
Adrenal Gland, 24 h, LE rat
  Concentration of radioactivity: 1.253 μg equiv/g tissue
Adrenal Gland, 72 h, LE rat
  Concentration of radioactivity: 1.186 μg equiv/g tissue
Adrenal Gland, 96 h, LE rat
  Concentration of radioactivity: 0.776 μg equiv/g tissue
Adrenal Gland, 168 h, LE rat
  Concentration of radioactivity: 0.490 μg equiv/g tissue
Adrenal Gland, 840 h, LE rat
  Concentration of radioactivity: 0.091 μg equiv/g tissue
Bile (in duct), 1 h, LE rat
  Concentration of radioactivity: 243.705 μg equiv/g tissue
Bile (in duct), 2 h, LE rat
  Concentration of radioactivity: 508.358 μg equiv/g tissue
Bile (in duct), 4 h, LE rat
  Concentration of radioactivity: 178.597 μg equiv/g tissue
Bile (in duct), 8 h, LE rat
  Concentration of radioactivity: BQL (BQL = Value is below the LLOQ)
Bile (in duct), 24 h, LE rat
  Concentration of radioactivity: 1.010 μg equiv/g tissue
Bile (in duct), 72 h, LE rat
  Concentration of radioactivity: 0.526 μg equiv/g tissue
Bile (in duct), 96 h, LE rat
  Concentration of radioactivity: 0.044 μg equiv/g tissue
Bile (in duct), 168 h, LE rat
  Concentration of radioactivity: BQL (BQL = Value is below the LLOQ)
Bile (in duct), 840 h, LE rat
  Concentration of radioactivity: BQL (BQL = Value is below the LLOQ)
Blood (cardiac), 1 h, LE rat
  Concentration of radioactivity: 3.040 μg equiv/g tissue
Blood (cardiac), 2 h, LE rat
  Concentration of radioactivity: 5.291 μg equiv/g tissue
Blood (cardiac), 4 h, LE rat
  Concentration of radioactivity: 2.839 μg equiv/g tissue
Blood (cardiac), 8 h, LE rat
  Concentration of radioactivity: 1.679 μg equiv/g tissue
Blood (cardiac), 24 h, LE rat
  Concentration of radioactivity: 0.225 μg equiv/g tissue
Blood (cardiac), 72 h, LE rat
  Concentration of radioactivity: 0.052 μg equiv/g tissue
Blood (cardiac), 96 h, LE rat
  Concentration of radioactivity: BQL (BQL = Value is below the LLOQ)
Blood (cardiac), 168 h, LE rat
  Concentration of radioactivity: BQL (BQL = Value is below the LLOQ)
Blood (cardiac), 840 h, LE rat
  Concentration of radioactivity: BQL (BQL = Value is below the LLOQ)
Bone Marrow, 1 h, LE rat
  Concentration of radioactivity: 1.464 μg equiv/g tissue
Bone Marrow, 2 h, LE rat
  Concentration of radioactivity: 3.348 μg equiv/g tissue
Bone Marrow, 4 h, LE rat
  Concentration of radioactivity: 2.550 μg equiv/g tissue
Bone Marrow, 8 h, LE rat
  Concentration of radioactivity: 2.045 μg equiv/g tissue
Bone Marrow, 24 h, LE rat
  Concentration of radioactivity: 0.898 μg equiv/g tissue
Bone Marrow, 72 h, LE rat
  Concentration of radioactivity: 0.552 μg equiv/g tissue
Bone Marrow, 96 h, LE rat
  Concentration of radioactivity: 0.280 μg equiv/g tissue
Bone Marrow, 168 h, LE rat
  Concentration of radioactivity: 0.232 μg equiv/g tissue
Bone Marrow, 840 h, LE rat
  Concentration of radioactivity: 0.043 μg equiv/g tissue
Bone, 1 h, LE rat
  Concentration of radioactivity: 0.130 μg equiv/g tissue
Bone, 2 h, LE rat
  Concentration of radioactivity: 0.257 μg equiv/g tissue
Bone, 4 h, LE rat
  Concentration of radioactivity: 0.183 μg equiv/g tissue
Bone, 8 h, LE rat
  Concentration of radioactivity: 0.190 μg equiv/g tissue
Bone, 24 h, LE rat
  Concentration of radioactivity: BQL (BQL = Value is below the LLOQ)
Bone, 72 h, LE rat
  Concentration of radioactivity: 0.036 μg equiv/g tissue
Bone, 96 h, LE rat
  Concentration of radioactivity: 0.040 μg equiv/g tissue
Bone, 168 h, LE rat
  Concentration of radioactivity: BQL (BQL = Value is below the LLOQ)
Bone, 840 h, LE rat
  Concentration of radioactivity: BQL (BQL = Value is below the LLOQ)
Brain (cerebellum), 1 h, LE rat
  Concentration of radioactivity: 0.569 μg equiv/g tissue
Brain (cerebellum), 2 h, LE rat
  Concentration of radioactivity: 1.144 μg equiv/g tissue
Brain (cerebellum), 4 h, LE rat
  Concentration of radioactivity: 0.422 μg equiv/g tissue
Brain (cerebellum), 8 h, LE rat
  Concentration of radioactivity: 0.284 μg equiv/g tissue
Brain (cerebellum), 24 h, LE rat
  Concentration of radioactivity: 0.099 μg equiv/g tissue
Brain (cerebellum), 72 h, LE rat
  Concentration of radioactivity: 0.073 μg equiv/g tissue
Brain (cerebellum), 96 h, LE rat
  Concentration of radioactivity: BQL (BQL = Value is below the LLOQ)
Brain (cerebellum), 168 h, LE rat
  Concentration of radioactivity: BQL (BQL = Value is below the LLOQ)
Brain (cerebellum), 840 h, LE rat
  Concentration of radioactivity: BQL (BQL = Value is below the LLOQ)
Brain (cerebrum), 1 h, LE rat
  Concentration of radioactivity: 0.391 μg equiv/g tissue
Brain (cerebrum), 2 h, LE rat
  Concentration of radioactivity: 0.887 μg equiv/g tissue
Brain (cerebrum), 4 h, LE rat
  Concentration of radioactivity: 0.341 μg equiv/g tissue
Brain (cerebrum), 8 h, LE rat
  Concentration of radioactivity: 0.196 μg equiv/g tissue
Brain (cerebrum), 24 h, LE rat
  Concentration of radioactivity: 0.070 μg equiv/g tissue
Brain (cerebrum), 72 h, LE rat
  Concentration of radioactivity: 0.062 μg equiv/g tissue
Brain (cerebrum), 96 h, LE rat
  Concentration of radioactivity: BQL (BQL = Value is below the LLOQ)
Brain (cerebrum), 168 h, LE rat
  Concentration of radioactivity: BQL (BQL = Value is below the LLOQ)
Brain (cerebrum), 840 h, LE rat
  Concentration of radioactivity: BQL (BQL = Value is below the LLOQ)
Brain (medulla), 1 h, LE rat
  Concentration of radioactivity: 0.498 μg equiv/g tissue
Brain (medulla), 2 h, LE rat
  Concentration of radioactivity: 0.858 μg equiv/g tissue
Brain (medulla), 4 h, LE rat
  Concentration of radioactivity: 0.376 μg equiv/g tissue
Brain (medulla), 8 h, LE rat
  Concentration of radioactivity: 0.199 μg equiv/g tissue
Brain (medulla), 24 h, LE rat
  Concentration of radioactivity: 0.085 μg equiv/g tissue
Brain (medulla), 72 h, LE rat
  Concentration of radioactivity: 0.059 μg equiv/g tissue
Brain (medulla), 96 h, LE rat
  Concentration of radioactivity: BQL (BQL = Value is below the LLOQ)
Brain (medulla), 168 h, LE rat
  Concentration of radioactivity: BQL (BQL = Value is below the LLOQ)
Brain (medulla), 840 h, LE rat
  Concentration of radioactivity: BQL (BQL = Value is below the LLOQ)
Cecum (contents), 1 h, LE rat
  Concentration of radioactivity: 0.099 μg equiv/g tissue
Cecum (contents), 2 h, LE rat
  Concentration of radioactivity: 1.065 μg equiv/g tissue
Cecum (contents), 4 h, LE rat
  Concentration of radioactivity: 42.166 μg equiv/g tissue
Cecum (contents), 8 h, LE rat
  Concentration of radioactivity: 175.858 μg equiv/g tissue
Cecum (contents), 24 h, LE rat
  Concentration of radioactivity: 30.022 μg equiv/g tissue
Cecum (contents), 72 h, LE rat
  Concentration of radioactivity: 1.987 μg equiv/g tissue
Cecum (contents), 96 h, LE rat
  Concentration of radioactivity: 0.159 μg equiv/g tissue
Cecum (contents), 168 h, LE rat
  Concentration of radioactivity: 0.123 μg equiv/g tissue
Cecum (contents), 168 h, SD rat
  Concentration of radioactivity: 0.196 μg equiv./g
Cecum (contents), 840 h, LE rat
  Concentration of radioactivity: BQL (BQL = Value is below the LLOQ)
Cecum, 1 h, LE rat
  Concentration of radioactivity: 1.781 μg equiv/g tissue
Cecum, 2 h, LE rat
  Concentration of radioactivity: 3.052 μg equiv/g tissue
Cecum, 4 h, LE rat
  Concentration of radioactivity: 2.443 μg equiv/g tissue
Cecum, 8 h, LE rat
  Concentration of radioactivity: 6.189 μg equiv/g tissue
Cecum, 24 h, LE rat
  Concentration of radioactivity: 7.077 μg equiv/g tissue
Cecum, 72 h, LE rat
  Concentration of radioactivity: 0.527 μg equiv/g tissue
Cecum, 96 h, LE rat
  Concentration of radioactivity: 0.208 μg equiv/g tissue
Cecum, 168 h, LE rat
  Concentration of radioactivity: 0.080 μg equiv/g tissue
Cecum, 840 h, LE rat
  Concentration of radioactivity: BQL (BQL = Value is below the LLOQ)
